Here are results for 25 molecules from article PMC4336329 (PLoS ONE, 2015).

Out of some 310,000 compounds screened, about 14,000 (4.5%) showed an effect of 50% or more. Effects have a minus sign here. The list shows a part of the results.
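Note: peak tail current of the secondary pulse compared with the same well before compound.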

Sequence of human ether-à-go-go-related gene (hERG) potassium channel (Q12809 whole entry, looked up): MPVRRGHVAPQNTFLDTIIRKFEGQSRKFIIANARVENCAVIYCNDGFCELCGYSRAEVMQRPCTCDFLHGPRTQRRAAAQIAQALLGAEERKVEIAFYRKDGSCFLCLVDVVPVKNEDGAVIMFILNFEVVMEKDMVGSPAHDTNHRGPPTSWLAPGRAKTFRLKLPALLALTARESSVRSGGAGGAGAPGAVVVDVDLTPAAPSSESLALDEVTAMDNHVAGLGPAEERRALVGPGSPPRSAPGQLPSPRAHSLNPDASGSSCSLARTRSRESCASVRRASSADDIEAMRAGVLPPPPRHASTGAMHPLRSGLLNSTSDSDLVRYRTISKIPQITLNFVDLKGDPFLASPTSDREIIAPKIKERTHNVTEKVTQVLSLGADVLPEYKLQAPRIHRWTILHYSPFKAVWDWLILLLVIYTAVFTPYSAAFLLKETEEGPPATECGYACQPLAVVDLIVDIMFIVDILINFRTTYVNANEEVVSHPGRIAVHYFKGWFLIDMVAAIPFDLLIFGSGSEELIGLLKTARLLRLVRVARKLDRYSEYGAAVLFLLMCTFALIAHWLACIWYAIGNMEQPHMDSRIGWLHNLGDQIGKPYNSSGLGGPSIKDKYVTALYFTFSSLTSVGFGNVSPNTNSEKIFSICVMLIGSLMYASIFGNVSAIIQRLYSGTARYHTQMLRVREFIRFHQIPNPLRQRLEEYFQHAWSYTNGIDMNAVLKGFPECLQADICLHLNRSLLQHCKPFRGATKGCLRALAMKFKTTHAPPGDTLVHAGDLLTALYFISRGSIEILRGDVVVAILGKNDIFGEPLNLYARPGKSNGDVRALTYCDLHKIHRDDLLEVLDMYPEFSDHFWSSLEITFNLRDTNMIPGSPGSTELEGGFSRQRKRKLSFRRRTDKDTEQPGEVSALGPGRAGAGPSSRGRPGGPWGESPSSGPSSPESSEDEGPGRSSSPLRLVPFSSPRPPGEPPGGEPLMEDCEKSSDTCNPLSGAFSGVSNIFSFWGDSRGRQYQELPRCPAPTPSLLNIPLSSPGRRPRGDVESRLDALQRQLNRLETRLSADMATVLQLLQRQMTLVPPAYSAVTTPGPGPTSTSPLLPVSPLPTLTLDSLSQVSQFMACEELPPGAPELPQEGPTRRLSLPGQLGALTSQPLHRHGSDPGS

This test addresses human ether-à-go-go-related gene (hERG) potassium channel (human, UniProt Q12809). Nature of the test: primary screen, population patch clamp on CHO cells stably expressing hERG.
Take `OCCNc1nc(-c2ccccc2)c2cc(Br)ccc2n1`: the “hERG current change (%, negative = inhibition) at 10uM” value is listed as 5.26%.

`O=C1c2ccccc2NC(c2cccc(F)c2)N1Cc1ccco1` (stereo not shown): the “hERG current change (%, negative = inhibition) at 10uM” value is -48.6%.

Take `CCC(=O)N(c1ccc(C(=O)O)cc1)c1nc(-c2ccc(OC)cc2)c(C)s1`: the “hERG current change (%, negative = inhibition) at 10uM” value is on record as 3.06%.

With `CC(C)CCN1NC2(CCCC(C)C2)NC1=S` (stereo not shown), the “hERG current change (%, negative = inhibition) at 10uM” value came to 11.6%.

On to `CC(CNC(=O)CCC(=O)N1CCOc2ccc(Cl)cc21)c1ccccc1` (stereo not shown), for which the “hERG current change (%, negative = inhibition) at 10uM” value was -40.6%.

For the molecule `CN(C)c1c(F)cc(C(=O)NCc2ccccc2)cc1F`, the “hERG current change (%, negative = inhibition) at 10uM” value was -4.04%.

As for `COc1ccccc1/C=C/CN1CCCCC1`, the “hERG current change (%, negative = inhibition) at 10uM” value is -2.31%.

Turning to `Cc1csc(SCC(=O)N2CCN(S(=O)(=O)c3ccccc3)CC2)n1`, the “hERG current change (%, negative = inhibition) at 10uM” value stood at 0.299%.

Consider `CCC(C)(C)n1nnnc1C(c1cccs1)N1CCN(Cc2ccccc2)CC1` (stereo not shown), for which the “hERG current change (%, negative = inhibition) at 10uM” value is -37.2%.

As to `CCOc1ccc(-n2c(=O)c3sccc3n(Cc3ccc(C)cc3)c2=O)cc1`, the “hERG current change (%, negative = inhibition) at 10uM” value came to 0.351%.

With `COc1ccc(OC)c(C(c2nnnn2C(C)(C)C)N2CCc3ccccc3C2)c1.Cl` (stereo not shown), the “hERG current change (%, negative = inhibition) at 10uM” value is -4.67%.

Consider `NNC(=O)c1cc(Cl)ccc1Cl`, for which the “hERG current change (%, negative = inhibition) at 10uM” value was 12.6%.

Turning to `Cc1ccc(CCC(=O)Nc2ccc(CC(=O)O)cc2)o1`, the “hERG current change (%, negative = inhibition) at 10uM” value amounted to 10.5%.

As for `CN(C)/C=N/c1sccc1C(N)=O`, the “hERG current change (%, negative = inhibition) at 10uM” value came to 6.62%.

For `CC(C)(Sc1ccc(CCN(CCCCC2CCCCC2)C(=O)NC2CCCCC2)cc1)C(=O)O`, the “hERG current change (%, negative = inhibition) at 10uM” value was -10.2%.

Take `CCOC(=O)c1oc2ccccc2c1NC(=O)c1ccc2c(c1)OCO2`: the “hERG current change (%, negative = inhibition) at 10uM” value is listed as -26.3%.

As for `Cc1ccc(S(=O)(=O)NC(CC(N)=O)C(=O)O)cc1` (stereo not shown), the “hERG current change (%, negative = inhibition) at 10uM” value was found to be 7.48%.

Consider `Cc1ccc(NC(=O)CSc2nnc(NC(=O)C3CC3)s2)cc1`, for which the “hERG current change (%, negative = inhibition) at 10uM” value turned out to be 25.7%.

For `COc1ccc(NC(=O)c2cc(-c3cc(OC)c(OC)c(OC)c3)nc3ccccc23)cc1OC`, the “hERG current change (%, negative = inhibition) at 10uM” value was 13%.

Regarding `O=[N+]([O-])c1ccc(CSc2nc3ccccc3[nH]2)cc1`, the “hERG current change (%, negative = inhibition) at 10uM” value is recorded as -54.2%.

Turning to `CC1CCCC(C)N1C(=O)CSc1nnc(COc2cccc3cccnc23)o1` (stereo not shown), the “hERG current change (%, negative = inhibition) at 10uM” value worked out at 6.67%.

For `Cc1ccc(C(=O)N2CCC3(CC2)Oc2ccc(Cl)cc2C(=O)C32CC(c3ccc(Cl)cc3)=NO2)s1` (stereo not shown), the “hERG current change (%, negative = inhibition) at 10uM” value stood at 16.6%.

With `CC(=O)c1cccc(NC(=O)C(=O)c2cn(CC(=O)N3CCCCC3)c3ccccc23)c1`, the “hERG current change (%, negative = inhibition) at 10uM” value was -8.35%.

Turning to `CCOC1=NS(=O)(=O)c2ccccc21`, the “hERG current change (%, negative = inhibition) at 10uM” value was 1.66%.

For the molecule `Cc1cc(Cl)cc(Cl)c1OCCOCCN(C)C.O=C(O)C(=O)O`, the “hERG current change (%, negative = inhibition) at 10uM” value was -48.9%.
